Experimental data published in paper PMC4336329 (PLoS ONE, 2015).
Out of some 310,000 compounds screened, about 14,000 (4.5%) showed an effect of 50% or more. Effects have a minus sign here. Some of the results follow.

biological target: human ether-à-go-go-related gene (hERG) potassium channel (human, UniProt Q12809); test: primary screen, population patch clamp on CHO cells stably expressing hERG
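Also: peak tail current of the secondary pulse compared with the same well before compound.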

human ether-à-go-go-related gene (hERG) potassium channel, sequence (Q12809 whole entry, looked up): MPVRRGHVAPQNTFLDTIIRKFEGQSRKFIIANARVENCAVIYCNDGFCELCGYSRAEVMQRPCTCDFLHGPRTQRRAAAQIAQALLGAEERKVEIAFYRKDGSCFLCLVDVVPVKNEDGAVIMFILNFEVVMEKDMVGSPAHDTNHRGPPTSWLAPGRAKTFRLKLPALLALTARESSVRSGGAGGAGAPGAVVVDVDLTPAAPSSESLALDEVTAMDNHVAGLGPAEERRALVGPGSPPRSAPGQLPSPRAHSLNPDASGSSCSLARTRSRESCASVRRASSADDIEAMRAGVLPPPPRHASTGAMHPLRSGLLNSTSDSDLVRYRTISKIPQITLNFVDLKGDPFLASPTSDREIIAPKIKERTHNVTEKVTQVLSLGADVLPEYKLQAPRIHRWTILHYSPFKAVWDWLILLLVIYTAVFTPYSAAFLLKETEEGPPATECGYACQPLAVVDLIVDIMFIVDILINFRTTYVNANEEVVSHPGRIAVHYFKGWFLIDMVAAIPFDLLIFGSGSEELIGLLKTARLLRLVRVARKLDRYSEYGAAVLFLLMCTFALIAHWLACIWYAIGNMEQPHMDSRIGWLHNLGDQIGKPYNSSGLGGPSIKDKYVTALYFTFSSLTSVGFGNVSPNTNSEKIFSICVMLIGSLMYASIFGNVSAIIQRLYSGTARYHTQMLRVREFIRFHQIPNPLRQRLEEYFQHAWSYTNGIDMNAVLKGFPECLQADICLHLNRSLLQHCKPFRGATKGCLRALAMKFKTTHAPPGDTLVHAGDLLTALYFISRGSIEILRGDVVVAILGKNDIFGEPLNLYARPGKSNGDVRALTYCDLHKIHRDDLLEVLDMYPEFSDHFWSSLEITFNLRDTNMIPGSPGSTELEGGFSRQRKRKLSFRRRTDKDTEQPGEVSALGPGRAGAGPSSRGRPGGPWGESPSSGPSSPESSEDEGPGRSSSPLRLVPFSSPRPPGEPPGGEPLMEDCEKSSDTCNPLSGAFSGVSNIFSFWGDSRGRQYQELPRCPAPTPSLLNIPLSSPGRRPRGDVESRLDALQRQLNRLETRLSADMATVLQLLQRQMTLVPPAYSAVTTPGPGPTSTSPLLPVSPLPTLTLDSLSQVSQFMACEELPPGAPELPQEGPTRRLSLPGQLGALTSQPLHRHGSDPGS

| SMILES | hERG current change (%, negative = inhibition) at 10uM [%] |
| --- | --- |
| O=C1CCC(CCC(=O)N2CCCC(C(=O)c3ccc(Cl)cc3)C2)=NN1 (stereo not drawn) | -19.1 |
| O=S(=O)(Nc1ccc(S(=O)(=O)N2CCCCCC2)cc1)c1cccs1 | -4.41 |
| CCc1cccc(N(C)C(N)=Nc2cccc3ccccc23)c1.Cl | 8.33 |
| Cc1ccc(S(=O)(=O)n2c(CN3CCCC(C)C3)nc3ccccc32)cc1 (stereo not drawn) | -14.6 |
| CN1C(=O)c2ccccc2OC1(C)Cc1ccccc1 (stereo not drawn) | 11.3 |
| CCOC(=O)Nc1cc(C)ccc1OC | 11.2 |
| Nc1nc(OCC2CCCCC2)c2[nH]cnc2n1 | -11.2 |
| CC(=O)c1ccc(N2CCN(C(=O)c3nn(C)c4c3CS(=O)(=O)c3ccccc3-4)CC2)cc1 | -64.5 |
| CCC(C)C(=O)Nc1nnc(-c2cccs2)s1 (stereo not drawn) | -0.158 |
| CC(=O)Nc1ccc(S(=O)(=O)N2CCC(C(=O)NCCc3c[nH]c4ccccc34)CC2)cc1 | 12.4 |
| CCN(Cc1ccccc1)C(c1ccc(C)cc1)c1nnnn1C(C)(C)CC (stereo not drawn) | -1.41 |
| C=CCOc1cccc(C2c3c(oc4ccc(F)cc4c3=O)C(=O)N2CCCN2CCOCC2)c1 (stereo not drawn) | -12.1 |
| COc1cccc(NC(=O)c2oc3ccccc3c2NC(=O)C(C)(C)C)c1 | 2.84 |
| COCCNC(=O)c1cc(C)ccc1C | -1.88 |
| Cc1cccc(NC(=O)CCS(=O)(=O)c2ccc3c(c2)oc(=O)n3C)c1 | 17.9 |
| O=C(NC(=S)Nn1cnnc1)c1ccc(F)cc1Cl | 20.1 |
| Cc1ccccc1N(CC(=O)NCCSC1CCCCC1)S(=O)(=O)c1ccccc1 | -16 |
| Clc1ccc(-c2nc3ccncc3[nH]2)cc1 | -17.3 |
| C=CCNC(=O)C1CCN(S(=O)(=O)c2ccc3ccccc3c2)CC1 | -2.93 |
| CC1CCCCN1Cc1nc2c(c(=O)n(C)c(=O)n2C)n1CCCc1ccccc1 (stereo not drawn) | -6.01 |
| CC(=O)NC1=NN(C(C)=O)C(C)(c2ccco2)S1 (stereo not drawn) | 14.6 |
| CCc1ccc(NC(=O)N(CCN2CCOCC2)C2CCN(C(C)=O)CC2)cc1 | 7.54 |
| O=C(NCCC(=O)N1CCC2(CC1)NCCc1[nH]cnc12)c1cccc(Cl)c1 | 18.1 |

| SMILES | hERG current change (%, negative = inhibition) at 10uM [%] |
| --- | --- |
| COCC(C)n1c(SCc2cc(C(=O)OC)c(C)o2)nc2ccccc2c1=O (stereo not drawn) | 4.04 |
| CC(=O)Nc1ccc(NC(=O)C(C)Sc2n[nH]c(-c3ccc(C)cc3)n2)cc1 (stereo not drawn) | -4.81 |
| CCCCCC#CCN1CCN(C23CC4CC(CC(C4)C2)C3)CC1 | -58.6 |
| CCN1CCCC1CN(Cc1cc2ccc(C)cc2[nH]c1=O)C(=S)Nc1ccccc1C(=O)OC (stereo not drawn) | -85.2 |
| S=C(N/N=C/c1ccc(Br)cc1)N1CCCCC1 | 13.7 |
| O=C(Cc1ccc(Cl)cc1)Nc1ccc(S(=O)(=O)N2CCOCC2)cc1 | -23.6 |
| O=C(OC(C(=O)NCc1ccc(F)cc1)c1ccccc1)c1ccco1 (stereo not drawn) | 14.4 |
| CCCCn1c(N)c(N(CCOC)C(=O)c2ccc(Br)s2)c(=O)[nH]c1=O | -6.46 |
| COc1ccc(C(CNC(=O)CCc2ccsc2)N(C)C)cc1 (stereo not drawn) | -18 |
| COc1ccc(CCNC(=O)c2cccc(Br)c2)cc1OC | 8.56 |
| Cc1ccc(-n2c(SCC(=O)N3CCOCC3)nnc2-c2ccncc2)cc1 | 5.92 |
| O=C(c1ccc([N+](=O)[O-])cc1)N(Cc1ccc(Cl)cc1Cl)N1C(=O)CCCC1=O | -6.85 |
| O=C1[C@H]2CC3C=CC2(O3)[C@@H]2OCCCN12 (stereo partly drawn) | 10.2 |
| Cc1onc(-c2c(Cl)cccc2Cl)c1C(=O)N1CCc2ccccc2C1 | 5.35 |
| Cc1n[nH]c(C)c1CCOc1ccc(C(C)C)cc1.Cl | 3.59 |
| CCOC(=O)CN(C(=O)CSc1nnc(CNc2ccc(F)cc2)n1C)c1ccccc1 | -28.6 |
| COc1ccccc1N1CCN(/N=C/c2c(C)nn(-c3ccccc3)c2C)CC1 | -25.1 |
| Cc1nc(SCCCSc2n[nH]c(C)n2)n[nH]1 | 15.7 |
| CC1Cc2ccccc2N1CC(=O)NC(=O)NCc1ccco1 (stereo not drawn) | -8.47 |
| COC(=O)c1ccc(C(=O)Nc2ccc(F)cc2)cc1 | 1.29 |
| CCCCC(=O)Nc1ccc(S(=O)(=O)Nc2nccc(C)n2)cc1 | -26.6 |
| ON=Cc1cccn1-c1ccccc1 | 9.05 |
| CN(C)C(=O)c1c(NC(=O)c2ccco2)sc2c1CCCCC2 | 3.91 |

| SMILES | hERG current change (%, negative = inhibition) at 10uM [%] |
| --- | --- |
| CCCc1cc(=O)[nH]c(SCC(=O)NN(c2ccccc2)c2ccccc2)n1 | -1.04 |
| COc1ccc(N2CCN(c3cc(C)nc4ccc(OC)cc34)CC2)cc1 | -69.1 |
| CCCn1c(N)c(Sc2ccc(C)cc2)c(=O)n(CCC)c1=O | -14.3 |
| NC(=O)c1nsc(C(=O)N(CC(=O)NCc2ccc3c(c2)OCO3)C2CCCC2)c1N | -20.5 |
| CCc1ccc2nc(SCC(=O)Nc3ccccc3N3CCOCC3)c(C#N)cc2c1 | 6.21 |
| COC(=O)c1c(C)oc2ccc(N(C(=O)c3ccncc3)S(=O)(=O)c3ccc4ccccc4c3)cc12 | 8.21 |
| COc1cc(NC(C)=O)ccc1NC(=O)c1cc2ccccc2o1 | 9.05 |
| CCN(CC)CCn1c(=N)n(CC(O)COc2cccc(C)c2)c2ccccc21.Cl (stereo not drawn) | -65.2 |
| N#CC(c1ccccc1)c1cnccn1 (stereo not drawn) | 4.13 |
| Cc1ccccc1OCCn1ccnc1 | 9.63 |
| COc1ccc2oc(C(=O)C3CC3)c(N)c2c1 | -0.711 |
| CCOC(=O)C1CCN(C(=S)NC(=O)c2cccs2)CC1 | 26.4 |
| C=C(C)COc1ccc(-c2ncncc2-c2ccc(OC)cc2)c(O)c1 | -11.5 |
| COC(=O)c1cc(C(=O)OC)cc(-n2c(C)cc(C(=O)CC#N)c2C)c1 | -31.2 |
| COc1ccccc1-n1cnnc1SCC(=O)c1ccc[nH]1 | -0.89 |
| Nc1ccc(S(=O)(=O)NC2(C(F)(F)F)NC(=O)N(Cc3ccccc3)C2=O)cc1 (stereo not drawn) | 17.5 |
| CCCC(=O)OCC(=O)Nc1cc([N+](=O)[O-])ccc1OC | 7.17 |
| COc1ccc(N(C(=O)CNC(=O)c2cccs2)C(C(=O)NCC2CCCO2)c2ccc(OC)c(OC)c2)cc1 (stereo not drawn) | 13 |
| COCCCNC(=S)Nc1cccc(S(=O)(=O)NC2=NCCC2)c1 | 36.7 |
| C/[N+]([O-])=C1\Cc2ccccc2C1=O | 3.94 |
| O=C(NNS(=O)(=O)c1ccc2ccccc2c1)NC1CCCCC1 | 10.6 |
| Cc1nc2ccc(NC(=O)c3cccc(S(=O)(=O)N(C)c4ccccc4)c3)cc2s1 | -1.29 |
| Cc1ccc(C(=O)c2ccc(CC(=O)[O-])n2C)cc1.O.[Na+] | 12.9 |

| SMILES | hERG current change (%, negative = inhibition) at 10uM [%] |
| --- | --- |
| O=C(CSc1n[nH]c(-c2ccncc2)n1)Nc1ccc(F)cc1 | 3.25 |
| CC(C)c1nc(-c2c(N)n(C)c(=O)n(C)c2=O)sc1C(=O)C(C)(C)C | 2.02 |
| O=S1(=O)CC(O)C(NCc2cccnc2)C1 (stereo not drawn) | -2.69 |
| COc1cc(S(=O)(=O)N(Cc2ccc(C)cc2)C2CCCCC2)ccc1-n1cnnn1 | -5.75 |
| C=CCON/C(CCC)=C1\C(=O)C(C(=O)OC)C(C)(C)CC1=NC (stereo not drawn) | 18.3 |
| COc1ccc(CN(C)CC(=O)Nc2ccccc2C(=O)NC2CC2)cc1 | -25.7 |
| CCc1cccc(C)c1NC(=O)CSc1nc2ccc(N3C(=O)c4ccccc4C3=O)cc2s1 | 4.44 |
| Cc1c(C)[n+](=O)c2c(n1[O-])CCC2 | -9.48 |
| O=C(COc1ccc(F)cc1Br)NCC1(N2CCOCC2)CCCCC1 | -48.7 |
| O=C1CCCc2[nH]nc(-c3cccnc3)c21 | 8.35 |
| N#CCCn1cc(/C=C2\NC(=S)N(c3ccccc3)C2=O)c(-c2ccc(-c3ccccc3)cc2)n1 | 18.9 |
| CCC(NC(=S)NCc1ccc(F)cc1)c1ccc(C)cc1 (stereo not drawn) | 13.7 |
| O=C(Nc1ccc(Cl)cc1Cl)C1CCCO1 (stereo not drawn) | 3.31 |
| CN(C)C(CNC(=O)C1CCN(S(=O)(=O)c2cccc(C(F)(F)F)c2)CC1)c1ccccc1 (stereo not drawn) | -21 |
| COc1ccc(Br)cc1CN(C)C(=O)c1cnc(C)cn1 | 4.02 |
| Cc1ccc(-n2c(O)c(C=Nc3ccc(S(=O)(=O)Nc4ncccn4)cc3)c3ccccc3c2=O)cc1C | -21.6 |
| Cc1ccc(Cn2c(Sc3nccc(C)n3)nc3c2c(=O)[nH]c(=O)n3C)cc1 | -8.13 |
| O=C(CCS(=O)(=O)c1ccc(Br)s1)N1CCc2ccccc21 | -0.987 |
| NC(=O)c1ccsc1NC(=O)COC(=O)CNC(=O)c1ccc(F)cc1 | -2.42 |
| O=C(Nc1ccccc1)c1ccccc1C(=O)N1CCCCC1 | 26.6 |
| Cc1cc(NC(=O)C(C)Sc2nc(-c3ccccc3)cc(=O)[nH]2)no1 (stereo not drawn) | 9.66 |
